Assay results taken from PubChem BioAssay AID1963576 (National Center for Advancing Translational Sciences (NCATS), 2024).
In all, about 46,000 compounds went through this assay and about 60 (0.1%) were called active. About 3% were inconclusive and are not listed. Calls follow the shape of the dose curve; as a rule, active = well fitted inhibition curve with a large enough effect; inconclusive = small, poorly fitted or top-dose-only effect; inactive = no such curve, though single readings can be large or run the other way. Some of the results follow.

Assay: Primary qHTS assay for Inhibitors of ovarian cancer metastasis using an organotypic tumor microenvironment (TME) model. Also: nearly all actives have a fitted effect of over 65% in size.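 As to activity change, negative = inhibition: plate controls were DMSO wells for no effect and tomatine positive control wells for full effect.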
Conditions: SKOV3ip1-GFP adhesion/invasion on 3D omental model, fluorescence; series mostly up to 45.8 µM; activity change, negative = inhibition: at the top concentration
Method in brief: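 qHTS, 4-pt dose (0.36-46 umol/L); SKOV3ip1-GFP, 1,200 cells/well, no FBS; primary omental fibroblast/mesothelial co-culture 48 h pre-grown; 2 h RT + 16 h 37 C; PBS wash, 4% PFA; GFP count 488/509 nm.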

| SMILES | activity change, negative = inhibition | outcome |
| --- | --- | --- |
| COc1cc(NS(=O)(=O)c2ccc3[nH]c(=O)[nH]c3c2)cc(OC)c1 | inactive: 15.9% | – |
| CCOc1ccc(NC(=O)CN2CCN(CC(=O)Nc3ccc(N(CC)CC)cc3)CC2)cc1 | inactive: 11.4% | – |
| O=C(NC1(C(F)(F)F)C(=O)Nc2c1c(=O)[nH]c(=O)n2CCc1ccccc1)c1ccc(Cl)cc1 (stereo not drawn) | inactive: -1.12% | – |
| O=C(NCc1ccccc1Cl)c1ccc2c(c1)nnn2C1CCCC1 | – | inactive |
| Cc1cccc(-c2nc3c4ccccc4nc(N4CCN(c5ccc(F)cc5)CC4)n3n2)c1 | inactive: 19.7% | – |
| COc1ccccc1C(=O)n1nc(-c2cccnc2)nc1NCc1ccccc1 | inactive: 1.76% | – |
| Cc1ccc(OCC(=O)Nc2nnc(SCc3cc(=O)c4ccccc4[nH]3)s2)cc1C | inactive: 1.96% | – |
| Cc1ccc(Cl)cc1NC(=O)c1ccc(NC(=O)N2CCSc3ncccc32)cc1 | inactive: -0.759% | – |
| CC1=C(c2ccc(C(C)C)cc2)S(=O)(=O)N=C1N1CCN(c2ccc(F)cc2)CC1 | inactive: -18.4% | – |
| O=C(CCCc1ccccc1)NC1CC(=O)N(c2ccc(Cl)cc2)C1 (stereo not drawn) | inactive: 0.62% | – |
| COc1ccc(NC(=O)c2coc(=O)c3ccccc23)cc1OC | inactive: 6.07% | – |
| CC1=Nc2cc(C(=O)NC3CCCCC3)ccc2Sc2ccc(Cl)cc21 | inactive: -5.33% | – |
| CCCCC(=O)Nc1ccc2nc(SCC(=O)N3CCc4ccccc43)sc2c1 | – | inactive |
| CC(=O)Nc1ccc(NC(=O)c2oc3c(c2C)-c2nn(Cc4ccccc4Cl)cc2CC3)cc1 | – | inactive |
| Cc1ccc(N2CCN(C(=O)c3nn(C)c4c3CS(=O)(=O)c3ccccc3-4)CC2)c(C)c1 | inactive: 0.408% | – |
| CCc1ccc2nc(N(Cc3cccnc3)C(=O)c3ccc(C#N)cc3)sc2c1 | – | inactive |
| CCOC(=O)N1CCc2c(sc3c2c(=O)n(Cc2ccccc2)c(=O)n3CC(=O)Nc2cccc(CC)c2)C1 | – | inactive |
| Cc1cccc(NC(=O)Cn2nc(-c3ccccc3)c3cnc4ccccc4c32)c1 | – | inactive |
| CCOc1ccc(-n2cc(-c3ccccc3)c3c(NCCc4ccccc4)ncnc32)cc1 | – | inactive |
| Cc1ccc(Nc2ccc3cc(S(=O)(=O)N4CCC(C)CC4)ccc3n2)c(Cl)c1 | inactive: -3.1% | – |
| CCc1cccc(NC(=O)CCn2c(=O)c3cccn3c3cccnc32)c1 | inactive: -3.13% | – |
| CCOC(=O)c1ccc(NC(=O)Cn2nc3c4ccccc4n(Cc4cccc(F)c4)cc-3c2=O)cc1 | inactive: -1.85% | – |
| O=C(CCn1c(=O)c2sccc2n(Cc2ccccc2F)c1=O)NCc1ccc2c(c1)OCO2 | inactive: -7% | – |
| Cc1cc(NC(=O)CCc2nc3cccnc3n2-c2ccccc2)ccc1Br | inactive: -9.07% | – |

| SMILES | activity change, negative = inhibition | outcome |
| --- | --- | --- |
| COC(=O)Cn1c(C2CC(=O)N(c3c(C)cccc3C)C2)nc2ccccc21 (stereo not drawn) | inactive: -2.02% | – |
| O=C(NCCc1ccccc1)c1ccc(CS(=O)Cc2ccc(Cl)cc2)o1 (stereo not drawn) | inactive: 8.94% | – |
| COc1ccc(C(=O)c2c(N)c(-c3nc(-c4ccc5c(c4)OCO5)cs3)c3ccccn23)cc1 | inactive: -7.77% | – |
| O=C(CCNS(=O)(=O)c1ccc2c(c1)CCCC(=O)N2)Nc1cccc(Cl)c1 | inactive: 4.51% | – |
| Cc1ccc(C)c(N2CCN(c3ncnc4c3nc3n4CCCC3)CC2)c1 | inactive: -17.9% | – |
| Cc1ccccc1NC(=O)Cn1cc(C(=O)c2ccco2)c2ccccc21 | inactive: 11.4% | – |
| O=S(=O)(c1ccc(C2CCCCC2)cc1)N1CCN(c2ccc(Cl)c(Cl)c2)CC1 | – | inactive |
| O=C(Nc1ccc(F)cc1F)C1CCN(c2ncccn2)CC1 | – | inactive |
| CCOc1ccccc1NC(=O)C1CCN(S(=O)(=O)c2c(C)noc2/C=C/c2ccco2)CC1 | – | inactive |
| O=C1OCC2=C1C(c1cccc(Cl)c1)CC(=O)N2c1ccc(C(F)(F)F)cc1 (stereo not drawn) | inactive: -9.92% | – |
| CCN(CC)c1ncnc2c1cnn2-c1cc(Cl)ccc1C | inactive: -7.61% | – |
| COc1cc(C(CC(=O)Nc2ccc(C)c(F)c2)N2Cc3ccccc3C2=O)cc(OC)c1OC (stereo not drawn) | inactive: 2.27% | – |
| COc1ccc(-c2nc(CNC(=O)NC3CCCCC3)c(C)o2)cc1 | inactive: -7.15% | – |
| COc1ccc(CC(=O)Nc2c(C(=O)N3CCN(c4ccccc4)CC3)oc3ccccc23)cc1OC | – | inactive |
| Cn1c(=O)c2nc(SCC(=O)Nc3ccc(OC(F)(F)F)cc3)n(C)c2n(C)c1=O | – | inactive |
| Cc1cccc(Cn2cc(S(=O)(=O)c3cccc(Cl)c3)c(=O)c3cc(F)c(N4CCOCC4)cc32)c1 | inactive: 2.66% | – |
| CCOC(=O)c1c(C)[nH]c(C)c1S(=O)(=O)N(C)CC(=O)Nc1ccc(OC)cc1 | inactive: 4.1% | – |
| CCn1c(-c2nonc2N)nc2c(C#CC(C)(C)O)ncc(OC[C@H]3CCCNC3)c21 | inactive: 18.3% | – |
| CC1CCCN(CCCNC(=O)c2cc(Sc3ccc(F)cc3)nc3ccccc23)C1 (stereo not drawn) | – | inactive |
| O=C(CCn1c(=O)c2ccccc2n(CC(=O)Nc2cccc(F)c2)c1=O)NCCc1ccccc1 | – | inactive |
| COc1ccc(OC)c(CNC(=O)c2ccc(N3Cc4ccccc4Oc4ncccc43)s2)c1 | inactive: 4.64% | – |
| COc1cc(OC)cc(-c2cc3nc(C)c(CCC(=O)NCCc4cccc(C)c4)c(C)n3n2)c1 | – | inactive |
| COc1cc(NC(=O)Cn2nc(C(F)(F)F)c3c2CCC3)cc(OC)c1OC | – | inactive |
| Cc1ccc(NC(=O)Cn2nc(-c3ccccc3)nc(Cc3ccc(Cl)cc3)c2=O)cc1 | inactive: -3.08% | – |
